*1 amine or outer side, *2 acyl side, *3 side chain or, on linkers, in order; H or OH if unused. Where a SMILES comes first, the peptide text is derived from it. [ ]: non-standard residue; d: D form. The star is where a group is joined. ξ: configuration not given here. Pro(3R,4S-CMe2) = CC1(C)[C@@H]2[C@@H](C(=O)O)NC[C@@H]21; Benzenesulfonyl(4-OMe) = COc1ccc(S(=O)(=O)*)cc1; Pro(4,4-S(CH2)3S) = O=C(O)[C@@H]1CC2(CN1)SCCCS2; Benzoyl(2-NO2) = O=C(c1ccccc1[N+](=O)[O-])*; Gly(1-Me-cHex) = CC1([C@H](N)C(=O)O)CCCCC1; Gly(2-thienyl) = N[C@H](C(=O)O)c1cccs1; Pro(4,4-Me2) = CC1(C)CN[C@H](C(=O)O)C1; X12 = CCC[C@H](N[*:1])C(=O)C(=O)[*:2]; Benzoyl(2,6-F2) = O=C(c1c(F)cccc1F)*; ξPhg(3-OMe) = COc1cccc(C(N)C(=O)O)c1; Isobutyloxycarbonyl = CC(C)COC(=O)*; X4 = CCCCC(N[*:1])C(=O)C(=O)[*:2]; X46 = CSCC(N[*:1])C(=O)C(=O)[*:2]; ξPhg(3-F) = NC(C(=O)O)c1cccc(F)c1; Hyp = O=C(O)[C@@H]1C[C@@H](O)CN1; X2 = CCCC(N[*:1])C(=O)C(=O)[*:2]; Aad = N[C@@H](CCCC(=O)O)C(=O)O; Chg = N[C@H](C(=O)O)C1CCCCC1; Phg = N[C@H](C(=O)O)c1ccccc1; Tle = CC(C)(C)[C@H](N)C(=O)O; X35 = O=C(CN[*:1])C(=O)[*:2]; X31 = O=C(O)c1nccnc1C(=O)*; ξChg = NC(C(=O)O)C1CCCCC1; ξPhg = NC(C(=O)O)c1ccccc1; Boc = CC(C)(C)OC(=O)*; ξV = CC(C)C(N)C(=O)O; Bn = c1ccc(C*)cc1; OtBu = CC(C)(C)O*; tBu = CC(C)(C)*
Molecular target: HCV NS3/NS4A protease (strain 1a) (Hepatitis C virus genotype 1a, UniProt P27958)
Assay: biochemical
Details: Compounds prepared by Solid Phase Synthesis, Table 3; read-out: Ki* CLASS

SMILES | Ki [nM]
CCCC(NC(=O)[C@@H]1CCCN1C(=O)C(NC(=O)OCC(C)C)C(C)C)C(=O)C(=O)NCC(=O)NC(C(N)=O)C1CCCCC1 (stereo partly drawn) (Isobutyloxycarbonyl-[ξV]P[X2]G[ξChg]-NH2) | > 1000
CCCC(NC(=O)[C@@H]1C[C@@H](OC(C)(C)C)CN1C(=O)[C@@H](NC(=O)c1c(F)cccc1F)C1CCCCC1)C(=O)C(=O)NCC(=O)NC(C(N)=O)c1cccc(F)c1 (stereo partly drawn) ({Benzoyl(2,6-F2)}-[Chg][Hyp](tBu)[X2]G[ξPhg(3-F)]-NH2) | 101 to 1000
CCCCC(NC(=O)[C@@H]1C[C@@H](OC(C)(C)C)CN1C(=O)[C@@H](NS(=O)(=O)c1ccc(OC)cc1)C(C)C)C(=O)C(=O)NCC(=O)N[C@H](C(N)=O)c1ccccc1 (stereo partly drawn) ({Benzenesulfonyl(4-OMe)}-V[Hyp](tBu)[X4]G[Phg]-NH2) | > 1000
CCCCC(NC(=O)[C@@H]1C[C@@H](OCc2ccccc2)CN1C(=O)C(NC(=O)c1ccccc1[N+](=O)[O-])C1CCCCC1)C(=O)C(=O)NCC(=O)NC(C(N)=O)c1ccccc1 (stereo partly drawn) ({Benzoyl(2-NO2)}-[ξChg][Hyp](Bn)[X4]G[ξPhg]-NH2) | 101 to 1000
CCCC(NC(=O)[C@@H]1C[C@@H](OC(C)(C)C)CN1C(=O)[C@@H](NC(=O)c1c(F)cccc1F)C1CCCCC1)C(=O)C(=O)NCC(=O)NC(C(N)=O)c1cccc(OC)c1 (stereo partly drawn) ({Benzoyl(2,6-F2)}-[Chg][Hyp](tBu)[X2]G[ξPhg(3-OMe)]-NH2) | 101 to 1000
CCCC(NC(=O)[C@@H]1C[C@@H](OC(C)(C)C)CN1C(=O)[C@@H](NC(=O)OCC(C)C)C1CCCCC1)C(=O)C(=O)NCC(=O)N[C@@H](CCCC(=O)OC(C)(C)C)C(N)=O (stereo partly drawn) (Isobutyloxycarbonyl-[Chg][Hyp](tBu)[X2]G[Aad](OtBu)-NH2) | > 1000
CCCCC(NC(=O)[C@@H]1C[C@@H](OCc2ccccc2)CN1C(=O)C(NC(=O)c1nccnc1C(=O)O)C1CCCCC1)C(=O)C(=O)NCC(=O)NC(C(N)=O)c1ccccc1 (stereo partly drawn) (X31-[ξChg][Hyp](Bn)[X4]G[ξPhg]-NH2) | 101 to 1000

Same assay, conditions: HCV protease continuous assay results, Table 1; read-out: Ki* Range

SMILES | Ki [nM]
CSCC(NC(=O)[C@@H]1CC2(CN1C(=O)[C@@H](NC(=O)OCC(C)C)C(C)(C)C)SCCCS2)C(=O)C(=O)NCC(=O)NC(C(=O)N(C)C)c1ccccc1 (stereo partly drawn) [Example 271] (Isobutyloxycarbonyl-[Tle][Pro(4,4-S(CH2)3S)][X46]G[ξPhg]-NMe2) | 1 to 100
CCCCC(NC(=O)[C@@H]1C[C@@H](OC(C)(C)C)CN1C(=O)[C@@H](NC(=O)OCC(C)C)C(C)(C)C)C(=O)C(=O)NCC(=O)N[C@H](C(=O)N(C)C)c1cccs1 (stereo partly drawn) [Example 316] (Isobutyloxycarbonyl-[Tle][Hyp](tBu)[X4]G[Gly(2-thienyl)]-NMe2) | 101 to 1000
CCCCC(NC(=O)[C@@H]1[C@@H]2[C@H](CN1C(=O)[C@@H](NC(=O)OC(C)(C)C)C(C)(C)C)C2(C)C)C(=O)C(=O)O (stereo partly drawn) [Example 307] | 101 to 1000
CCCCC(NC(=O)[C@@H]1C[C@@H](OC(C)(C)C)CN1C(=O)[C@@H](NC(=O)OCC(C)C)C(C)(C)C)C(=O)C(=O)NCC(=O)N[C@@H](CN=[N+]=[N-])c1ccccc1 (stereo partly drawn) [Example 285] | > 1000

Same assay, conditions: Table 4; HCV NS3/NS4A protease, spectrophotometric assay, 30° C., pH 6.5; read-out: Ki* Range

Ki [nM] | SMILES
101 to 1000 | CCCC(NC(=O)C1CC(C)(Cc2ccccc2)CN1C(=O)[C@@H](NC(=O)OCC(C)C)C1CCCCC1)C(=O)C(=O)NCC(=O)N[C@H](C(N)=O)c1ccccc1 (stereo partly drawn)
101 to 1000 | CCCC(NC(=O)C1C[C@@H](C2CCCCC2)CN1C(=O)[C@@H](NC(=O)OCC(C)C)C1CCCCC1)C(=O)C(=O)NCC(=O)N[C@H](C(N)=O)c1ccccc1 (stereo partly drawn)

SMILES | Ki [nM]
CCC[C@H](NC(=O)[C@@H]1CC(C)(C)CN1C(=O)[C@@H](NC(=O)OCC(C)C)C1(C)CCCCC1)C(=O)C(=O)NCC(=O)N[C@H](C(=O)N(C)C)c1ccccc1 (Isobutyloxycarbonyl-[Gly(1-Me-cHex)][Pro(4,4-Me2)][X12]G[Phg]-NMe2) | 1 to 100

Same assay, conditions: Table 5; HCV NS3/NS4A protease, 30° C., pH 6.5; read-out: Ki* Range

Ki [nM] | SMILES
1 to 100 | C=CCCC(NC(=O)[C@@H]1[C@@H]2[C@H](CN1C(=O)[C@@H](NC(=O)OC(C)(C)C)C1CCCCC1)C2(C)C)C(=O)C(=O)NCCC(=O)N1CC1 (stereo partly drawn)
1 to 100 | C=CCC(NC(=O)[C@@H]1[C@@H]2[C@H](CN1C(=O)[C@@H](NC(=O)OC(C)(C)C)C1Cc3ccccc3C1)C2(C)C)C(=O)C(=O)NCC(=O)NCc1ccccc1 (stereo partly drawn)
101 to 1000 | C=CCCC(NC(=O)[C@@H]1[C@H]2[C@@H](CN1C(=O)C(NC(=O)NC(C)(C)CC(C)(C)C)C1CCCCC1)C2(Cl)Cl)C(=O)C(=O)NCC=C (stereo partly drawn)
> 1000 | C=CCCC(NC(=O)[C@@H]1[C@@H]2[C@H](CN1C(=O)[C@@H](NC(=O)OC(C)(C)C)C1CCCCC1)C2(C)C)C(=O)C(=O)NCCCC(=O)O (stereo partly drawn)
1 to 100 | C=CCCC(NC(=O)[C@@H]1[C@H]2[C@@H](CN1C(=O)[C@@H](NC(=O)OC(C)(C)C)C1CCCCC1)C2(Cl)Cl)C(=O)C(=O)NCCC(=O)NC(C)(C)C (stereo partly drawn)
101 to 1000 | CCCC(NC(=O)[C@@H]1C2C(CN1C(=O)C(NC(=O)OC(C)(C)C)C1CCCCC1)C2(C)C)C(=O)C(=O)NCCS(=O)(=O)Nc1ccc(C)cc1 (stereo partly drawn)

Same assay, conditions: Table 5; HCV NS3/NS4A protease, spectrophotometric assay, 30° C., pH 6.5; read-out: Ki* Range

SMILES | Ki [nM]
CC(C)COC(=O)N[C@H](C(=O)N1C[C@@H]2[C@H]([C@H]1C(=O)NC(CC1CCC1)C(=O)C(N)=O)C2(C)C)C1CCCCC1 (stereo partly drawn) | 1 to 100
CN(C)C(=O)[C@@H](NC(=O)CNC(=O)C(=O)CNC(=O)[C@@H]1[C@@H]2[C@H](CN1C(=O)[C@@H](NC(=O)OC(C)(C)C)C(C)(C)C)C2(C)C)c1ccccc1 (Boc-[Tle][Pro(3R,4S-CMe2)][X35]G[Phg]-NMe2) | > 1000

Further lines, results first:

Ki [nM] | SMILES
> 1000 | COC(=O)C(=O)C1(NC(=O)[C@@H]2[C@@H]3[C@H](CN2C(=O)[C@@H](NC(=O)OC(C)(C)C)C2CCCCC2)C3(C)C)CC1
1 to 100 | C=CCCC(NC(=O)[C@@H]1C2C(CN1C(=O)[C@@H](NC(=O)OCC(C)C)C1Cc3ccccc3C1)C2(C)C)C(=O)C(=O)NCC(=O)N[C@H](C(=O)N(C)C)c1ccccc1 (stereo partly drawn)

— patent US7592316B2, “Peptides as NS3-serine protease inhibitors of hepatitis C virus” (Schering Corporation, priority 2000, dated 2009)
